In PubChem BioAssay AID1345082 (National Center for Advancing Translational Sciences (NCATS), 2018):
The campaign covered roughly 94,000 compounds. About 4,000 (4.3%) were called active. Inconclusive means that the source gave no clear call. Such entries were picked first, then a sample of the others. Calls follow the shape of the dose curve; as a rule, active = well fitted inhibition curve with a large enough effect; inconclusive = small, poorly fitted or top-dose-only effect; inactive = no such curve, though single readings can be large or run the other way. Potencies beside an inconclusive call are fits to weak or partial responses and may not hold up.

test: Cytotoxic Profiling in NIH 3T3 Cell Line of Diverse Libraries Using Quantitative High-Throughput Screening; details: NIH 3T3 viability, CellTiter-Glo ATP luminescence, 48-72 h; activity change, negative = cytotoxicity: at 96.7 µM (top of the series) unless noted; series mostly up to 96.7 µM; also: nearly all actives have a fitted effect of over 55% in size
Summary of the method: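 First NIH 3T3 cells are plated at 400 cells/well; next compound is pinned in; then plates incubate 48 or 72 hr at 37 °C; finally CellTiter-Glo is added and luminescence read after 10 min.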
% is scaled to controls: 0 for no effect and ±100 for the full control effect; potency is read from the fitted curve at half-maximal effect; tags tell the direction and shape of the fitted curve.

| Compound | Potency | activity change, negative = cytotoxicity | outcome |
| --- | --- | --- | --- |
| O=C(NCCc1ccc(F)cc1)C1CN(c2ccc(F)cc2)C(=O)N1 (stereo not given) | inconclusive: 17.8 µM [inhibitor, full curve] | – | – |
| COc1ccc(C(=O)NC2CCN(c3ccc4nnc(-c5ccccc5)n4n3)C2)cc1 (stereo not given) | inconclusive: 56.2 µM [inhibitor, partial curve, poor fit] | – | – |
| O=C(NCC1CCCCC1)C1CCCCN1Cc1ccc(-c2ccsc2)cc1 (stereo not given) | inconclusive: 50.1 µM [inhibitor, partial curve, poor fit] | – | – |
| Cc1sc2cc(C(=O)NCCN(C)C)[nH]c2c1CN1CCCCC1 | inconclusive: 44.7 µM [inhibitor, partial curve, poor fit] | – | – |
| Cc1ccc(CNC(=O)N[C@@H]2CN(Cc3cccnc3)C[C@H]2CN(C)C)cc1 | – | inactive: -9.51% | – |
| CC(C)Cc1nc2nccc(-c3ccsc3)n2n1 | inconclusive: 50.1 µM [inhibitor, partial curve, poor fit] | – | – |
| c1ccc(Nc2cc3c(cn2)CN(Cc2ccn[nH]2)CCN3)cc1 | inconclusive: 10 µM [inhibitor, full curve, poor fit] | – | – |
| Cc1noc(C2CC3(CCN(C(=O)Cc4c[nH]c5ccccc45)CC3)CN2C)n1 (stereo not given) | – | inactive: -0.432% | – |
| COc1cccc(C(=O)N(C)C(C)c2cccs2)c1 (stereo not given) | – | inactive: -20.1% [at 138 µM] | – |
| O=[N+]([O-])c1cccc(-c2noc([C@@H]3Cc4nc[nH]c4CN3)n2)c1 | inactive | – | – |
| COc1ccc(F)cc1-c1ccc(CN2CCCCC2C(=O)N2CCc3ccccc3C2)cc1 (stereo not given) | active: 39.8 µM | – | – |
| CCC(CC)C(=O)NC[C@@H]1C=C(C)[C@H](Cc2nc3c(C)cccc3[nH]2)C[C@H]1C(C)C | inconclusive: 44.7 µM [inhibitor, full curve] | – | – |
| O=C1NCc2ccccc2CC12CCN(Cc1ccc(F)c(Cl)c1)C2 (stereo not given) | inconclusive: 70.8 µM [inhibitor, single point] | – | – |
| COC(=O)NCCNC(=O)c1cccc(-c2ccsc2)c1 | – | inactive: -15.8% [at 138 µM] | – |
| O=C(c1ccoc1)N1CCC(N2C(=O)C3(CCCC3)C2c2ccccc2)CC1 (stereo not given) | inconclusive: 50.1 µM [inhibitor, partial curve, poor fit] | – | – |
| c1ccc(Cn2cc(CN3CCCOCC3)c(-c3cc4ccccc4o3)n2)cc1 | inconclusive: 50.1 µM [inhibitor, partial curve, poor fit] | – | – |
| COc1cccc(CN2CC(O)CN(C(=O)c3cccc(C(F)(F)F)c3)CC2=O)c1OC (stereo not given) | – | inactive: -21.2% | – |
| Cc1nnc([C@@H]2CC(F)(F)CN2C(=O)c2c(C)noc2C)o1 | – | – | inactive |
| COc1ccc(CCN2Cc3cc(NC(=O)c4ccc(F)cc4F)ccc3OC(C)C2=O)cc1 (stereo not given) | inconclusive: 44.7 µM [inhibitor, partial curve, poor fit] | – | – |
| COc1ccc(CN2C(=O)[C@@H]3C[C@@H](CN3C3COC3)Oc3ccccc32)cc1 | – | inactive: -23.1% [at 174 µM] | – |

| Compound | Potency | activity change, negative = cytotoxicity | outcome |
| --- | --- | --- | --- |
| CN(Cc1cccc(N2CCN(C(=O)OC(C)(C)C)CC2)c1F)[S+](C)(=O)[O-] | inconclusive: 44.7 µM [inhibitor, partial curve, poor fit] | – | – |
| CC1(c2ccccc2)N(Cc2ccccc2)C(=O)OC12CCN(Cc1ccc(O)cc1)CC2 (stereo not given) | inconclusive: 70.8 µM [inhibitor, partial curve, poor fit] | – | – |
| Cc1ccc(NC(=O)NCC2CCOCC2)cc1 | – | inactive: 3.9% | – |
| CN1C(=O)C(CC(=O)N(C)C2CCNCC2)(Cc2ccccc2)c2ccccc21 (stereo not given) | – | inactive: 2.93% | – |
| CC(=O)N1CCN(C(=O)c2cc(-c3ccccc3C(F)(F)F)nc3c2cnn3C)CC1 | – | inactive: -14% | – |
| CCN1C(=O)CCc2cc(NC(=O)Cc3ccc(OC)c(Cl)c3)ccc21 | inconclusive: 44.7 µM [inhibitor, partial curve, poor fit] | – | – |
| CN1CCC2(C1)CN(Cc1ccccc1)c1ccc(C(=O)NCC[S+](C)(=O)[O-])cc12 (stereo not given) | inconclusive: 100 µM [inhibitor, partial curve, poor fit] | – | – |
| Cc1nc(CN2C(=O)OC3(CCN(C(=O)c4cccc(C#N)c4)CC3)C2(C)c2ccccc2)cs1 (stereo not given) | inconclusive: 5.62 µM [inhibitor, full curve, poor fit] | – | – |
| CC(C)CN1CCN(c2cc(Cl)ncn2)C(=O)C1 | – | inactive: -32.9% [at 138 µM] | – |
| N#Cc1cccnc1-c1ccc(C(=O)N2CCC(NC(=O)Cc3cccc(Cl)c3)CC2)cc1 | inconclusive: 50.1 µM [inhibitor, partial curve, poor fit] | – | – |
| CC(=O)N1CCC(Cc2ccc(C(=O)Nc3ccc(C)cc3)cc2)CC1 | inconclusive: 44.7 µM [inhibitor, partial curve, poor fit] | – | – |
| CN(CC1CCCN(CCc2ccc(Cl)cc2)C1)C(=O)c1ccc(-n2cnnn2)cc1 (stereo not given) | inconclusive: 56.2 µM [inhibitor, partial curve, poor fit] | – | – |
| CN1C[C@@H](NS(=O)(=O)c2ccc(C#N)cc2)C[C@H]1c1nc(-c2ccc(Cl)cc2)no1 | inconclusive: 56.2 µM [inhibitor, partial curve, poor fit] | – | – |
| Cn1ncc2c(C(=O)NCc3ccc(F)cc3)cc(-c3ccc(Cl)cc3)nc21 | inconclusive: 79.4 µM [inhibitor, partial curve, poor fit] | – | – |
| COc1cccc(C(=O)N2CC(Oc3ccccc3-c3nc(-c4ccccc4)no3)C2)c1 | inconclusive: 14.1 µM [inhibitor, full curve, poor fit] | – | – |
| N#Cc1ccc(C(=O)N[C@@H]2CN(Cc3ccccc3)C[C@H]2CO)cc1 | active: 14.1 µM | – | – |
| NC(=O)[C@H](CC1CCCCC1)NC(=O)[C@@H]1CN(C(=O)Nc2ccccc2)CCN1C(=O)C1CCCCC1 | inconclusive: 89.1 µM [inhibitor, partial curve, poor fit] | – | – |
| COc1ccc(-c2cc(N3CCC(NC(=O)C4(c5ccccc5)CC4)CC3)n[nH]2)cc1 | inconclusive: 35.5 µM [inhibitor, partial curve] | – | – |
| COc1ccc(C(=O)NC2CCN(Cc3cccc(-c4ccccc4OC)c3)CC2)cc1 | inconclusive: 44.7 µM [inhibitor, partial curve, poor fit] | – | – |
| Cc1ccccc1N1Cc2c(ncnc2N2CCN(Cc3ccccc3)CC2)N(C)CC1=O | – | inactive: -26% | – |
